{"source": "PubChem BioAssay AID588579", "about": "(National Center for Advancing Translational Sciences (NCATS), 2011)", "note": "Among all 400,000 compounds or so, about 2,200 (0.55%) were called active. Inconclusive means that the source gave no clear call. Such entries were picked first, then a sample of the others. Calls come from the whole dose curve; as a rule, active = well fitted inhibition curve with a large enough effect; inconclusive = small, poorly fitted or top-dose-only effect, or another doubt; inactive = no such curve, though single readings can be large or run the other way. Potencies beside an inconclusive call are fits to weak or partial responses and may not hold up. Potency is the fitted concentration of half-maximal effect; tags give direction and shape of the fitted curve.", "data": [{"molecular_target": "DNA polymerase kappa (Homo sapiens) (UniProt Q9UBT6)", "sequence (Q9UBT6 whole entry, looked up)": "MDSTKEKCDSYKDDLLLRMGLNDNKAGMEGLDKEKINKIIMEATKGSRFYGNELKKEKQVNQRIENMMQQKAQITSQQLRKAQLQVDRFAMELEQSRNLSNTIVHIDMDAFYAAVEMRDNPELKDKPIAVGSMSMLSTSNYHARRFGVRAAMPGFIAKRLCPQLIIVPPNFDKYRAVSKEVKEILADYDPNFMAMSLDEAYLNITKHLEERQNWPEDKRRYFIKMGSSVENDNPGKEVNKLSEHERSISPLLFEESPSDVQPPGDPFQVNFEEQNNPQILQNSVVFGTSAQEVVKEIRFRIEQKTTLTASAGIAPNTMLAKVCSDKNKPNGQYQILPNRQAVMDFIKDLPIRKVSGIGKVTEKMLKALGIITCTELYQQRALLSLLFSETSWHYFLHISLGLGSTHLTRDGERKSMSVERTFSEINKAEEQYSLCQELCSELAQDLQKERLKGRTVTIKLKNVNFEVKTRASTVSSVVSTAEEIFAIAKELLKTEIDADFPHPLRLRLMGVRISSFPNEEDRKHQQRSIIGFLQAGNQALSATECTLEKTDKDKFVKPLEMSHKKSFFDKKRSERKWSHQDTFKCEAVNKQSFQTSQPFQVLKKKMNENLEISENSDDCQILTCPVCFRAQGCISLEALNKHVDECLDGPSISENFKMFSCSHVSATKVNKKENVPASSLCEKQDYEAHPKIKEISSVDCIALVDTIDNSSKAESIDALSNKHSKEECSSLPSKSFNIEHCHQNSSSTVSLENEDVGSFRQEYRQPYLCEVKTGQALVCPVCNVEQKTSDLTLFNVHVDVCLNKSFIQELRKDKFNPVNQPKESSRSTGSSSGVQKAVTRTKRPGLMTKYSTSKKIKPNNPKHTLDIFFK", "experiment": "qHTS for Inhibitors of Polymerase Kappa", "conditions": "purified Pol kappa, fluorescent DNA synthesis assay, 10 min; series mostly up to 107 µM", "summary_of_the_method": "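10 nM Pol kappa was preincubated with compounds for 15 min at room temperature. Reaction started with 50 nM (final) substrate. Fluorescence read kinetically at 0 and 10 min.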", "values": [{"compound": "CC(C)(C)NC(=O)COc1ccc(S(=O)(=O)N2CCCC2)cc1", "Potency": "inactive"}, {"compound": "O=c1cc(O)nc(SCc2ccccc2)n1-c1ccc(Cl)cc1", "Potency": "inconclusive: 89.1 µM [inhibitor, partial curve, poor fit]"}, {"compound": "O=C(Nc1nc2c(F)cccc2s1)c1ccco1", "Potency": "inactive"}, {"compound": "CCCC1=NN2C(=N)/C(=C\\c3ccc(SCc4ccco4)o3)C(=O)N=C2S1", "Potency": "active: 28.2 µM"}, {"compound": "NS(=O)(=O)c1cccc(NC(=O)CSc2nnc(-c3ccncc3)n2C2CC2)c1", "Potency": "inactive"}, {"compound": "CCCCC(=O)Nc1nnc(S(=O)(=O)N(C)Cc2ccccc2)s1", "Potency": "inactive"}, {"compound": "O=C(NC1CCCC1)c1ccc2nc[nH]c2c1", "Potency": "inactive"}, {"compound": "COc1ccccc1C1CC(=O)Oc2ccc(C(C)(C)C)cc21", "note": "(stereo not drawn)", "Potency": "inconclusive: 20 µM [inhibitor, partial curve, poor fit]"}, {"compound": "O=C(COc1ccc(F)cc1)OCc1cc(=O)n2nc(-c3cccs3)sc2n1", "Potency": "inconclusive: 89.1 µM [inhibitor, partial curve, poor fit]"}, {"compound": "C#CCOCCOCCOCCNc1nc(N2CCN(C(=O)[C@H](CCC(=O)O)n3cc(C(N)CO)nn3)CC2)nc(N2CCN(C(=O)[C@H](CCC(=O)O)n3cc(C(N)[C@H](C)CC)nn3)CC2)n1", "note": "(stereo partly drawn)", "Potency": "inactive"}, {"compound": "C/C(=N\\NC(=S)NCCc1ccccc1)c1cccc(Br)c1", "Potency": "inactive"}, {"compound": "CC(C)C(C(=O)O)N1C(=O)/C(=C/c2ccc(Br)cc2)SC1=S", "note": "(stereo not drawn)", "Potency": "inconclusive: 26.7 µM [inhibitor, single point]"}, {"compound": "Cc1cc(OCC(=O)Nn2cnnc2)c(C)cc1Br", "Potency": "inconclusive: 89.1 µM [inhibitor, partial curve, poor fit]"}, {"compound": "CCOC(=O)c1ccc(S(=O)(=O)N2CCC(C(=O)N3CCN(c4ccccc4OC)CC3)CC2)cc1", "Potency": "inconclusive: 100 µM [inhibitor, partial curve, poor fit]"}, {"compound": "C=C(C)C(=O)Nc1cccc(C2=NOC3(C2)C[C@H](C(N)=O)N(C(=O)CC#N)C3)c1", "note": "(stereo partly drawn)", "Potency": "inconclusive: 56.2 µM [inhibitor, partial curve, poor fit]"}, {"compound": "Cc1c(C(=O)Nc2ccccc2)sc2nc(-c3cc4cc(Cl)ccc4oc3=O)[nH]c(=O)c12", "Potency": "inactive"}, {"compound": "O=C1C=C(Nc2cccc3cccnc23)c2ccccc2C1=O", "Potency": "inconclusive: 100 µM [inhibitor, single point]"}, {"compound": "Cc1cccc(CNc2ccnc(-c3ccc(N(C)C)cc3)n2)c1", "Potency": "inconclusive: 44.7 µM [inhibitor, single point]"}, {"compound": "O=C1S/C(=C\\C=C\\c2ccco2)C(=O)N1c1ccccc1", "Potency": "active: 44.7 µM"}, {"compound": "O=C(Cn1ncc2c3ccccc3n(Cc3cccc(Cl)c3)c2c1=O)Nc1ccc(F)cc1F", "Potency": "inconclusive: 100 µM [inhibitor, single point]"}, {"compound": "CN1CCN(S(=O)(=O)c2cccc(C(=O)Nc3sccc3C(N)=O)c2)CC1", "Potency": "inconclusive: 89.1 µM [inhibitor, single point]"}, {"compound": "NC(=S)NN=Cc1nccc2ccccc12", "Potency": "inactive"}, {"compound": "COc1cccc(N2CCN(C(=O)c3cc4c(s3)-c3ccccc3OC4)CC2)c1", "Potency": "inconclusive: 89.1 µM [inhibitor, partial curve, poor fit]"}, {"compound": "C=CC(C1=CC(=O)C(OC)=C(OC)C1=O)c1ccccc1", "note": "(stereo not drawn)", "Potency": "inconclusive: 35.5 µM [inhibitor, single point]"}, {"compound": "CN(C)[C@H]1C(=O)C(C(=O)NCN2CCCC2)=C(O)[C@]2(O)C(=O)C3=C(O)c4c(O)cccc4[C@@](C)(O)[C@H]3C[C@@H]12", "Potency": "active: 4.74 µM"}, {"compound": "COc1ccc(C(=O)Nc2cccc(/C=C(\\CCC(=O)O)c3nc4ccccc4s3)c2)cc1", "Potency": "inconclusive: 89.1 µM [inhibitor, partial curve, poor fit]"}, {"compound": "COc1cc(C)nc(NCc2ccccc2)n1", "Potency": "inconclusive: 89.1 µM [inhibitor, partial curve, poor fit]"}, {"compound": "O=C(/C=C/c1ccco1)NC(=S)NNC(=O)c1ccco1", "Potency": "inactive"}, {"compound": "Cc1cc(C)c2nc(Cl)c(CN(Cc3ccco3)C(=O)Nc3ccccc3C)cc2c1", "Potency": "inactive"}, {"compound": "Clc1ccc(CSc2nncn3c2cc2occc23)cc1", "Potency": "inconclusive: 100 µM [inhibitor, single point]"}, {"compound": "COc1ccc(CNC(=O)C(=O)NCC(c2cccnc2)N2CCN(c3ccccc3)CC2)cc1", "note": "(stereo not drawn)", "Potency": "inconclusive: 89.1 µM [inhibitor, single point]"}, {"compound": "CC(=O)C[C@H](O)CC(=O)[C@H]1OC(=O)CCCCCc2ccccc21", "Potency": "inconclusive: 3.16 µM [inhibitor, partial curve, poor fit]"}, {"compound": "O=c1cc(CSc2nnnn2-c2ccccc2)nc(Nc2ccc(F)cc2)[nH]1", "Potency": "inconclusive: 89.1 µM [inhibitor, single point]"}, {"compound": "CCOc1cccc2cc(-c3nnc(NCc4ccco4)s3)c(=O)oc12", "Potency": "inconclusive: 89.1 µM [inhibitor, single point]"}, {"compound": "CC(=O)Nc1ccc(S(=O)(=O)Nc2nc3nc(-c4ccccc4)cc(-c4ccccc4)n3n2)cc1", "Potency": "active: 79.4 µM"}, {"compound": "CCOc1ccc(C(=O)Nc2ccc3c(c2)C(=O)NC3=O)cc1", "Potency": "inactive"}, {"compound": "C/C(=N\\OCC(=O)OCC(=O)NCc1ccccc1)c1ccc2c(c1)OCO2", "Potency": "inconclusive: 79.4 µM [inhibitor, single point]"}, {"compound": "COC(=O)c1cc2c(-c3ccccc3)c(C)c3ccccn3c-2c1C(=O)OC", "Potency": "inconclusive: 79.4 µM [inhibitor, partial curve, poor fit]"}, {"compound": "COC(=O)CNC(=O)C1Cc2ccccc2CN1S(=O)(=O)c1cccs1", "note": "(stereo not drawn)", "Potency": "inconclusive: 89.1 µM [inhibitor, single point]"}, {"compound": "NC(=O)C1CCN(C2=C(Cl)C(=O)c3ccccc3C2=O)CC1", "Potency": "inactive"}, {"compound": "Fc1ccc(-c2nc3c4c(-c5ccccc5)c(-c5ccccc5)oc4ncn3n2)cc1", "Potency": "inactive"}, {"compound": "C/C(=N\\NC(=O)COc1c(C)cccc1C)c1cccs1", "Potency": "inconclusive: 89.1 µM [inhibitor, single point]"}, {"compound": "Cc1cccc(C)c1NC(=O)CN(C)C(=O)c1cccc(-n2cccc2)c1", "Potency": "inconclusive: 56.2 µM [inhibitor, partial curve, poor fit]"}]}]}
